Data on 42 sequences can be found in article PMC7819943, “Rice protein-binding microarrays: a tool to detect cis-acting elements near promoter regions in rice”.

This is one part of the list.

This experiment deals with T1, OsWOX13 (Oryza sativa, UniProt Q5QMM3 1-267).
T1 sequence: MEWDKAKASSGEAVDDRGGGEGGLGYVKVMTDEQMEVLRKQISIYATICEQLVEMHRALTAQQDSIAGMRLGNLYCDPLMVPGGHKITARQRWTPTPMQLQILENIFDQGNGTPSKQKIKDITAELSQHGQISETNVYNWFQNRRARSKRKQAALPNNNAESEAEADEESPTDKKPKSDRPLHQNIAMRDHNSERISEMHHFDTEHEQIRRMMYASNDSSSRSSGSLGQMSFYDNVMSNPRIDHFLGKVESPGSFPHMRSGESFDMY
Briefly: protein-binding microarray (RPBM); PBS, 2% BSA, 51.3 ng/ul salmon testes DNA, 50 uM zinc acetate, 200 nM TF, 25 C, 1 h; high values mean tight binding. The note with it: protein: recombinant; tags: N-terminal polyhistidine and DsRed monomer fusion (pET32a); label: CyDye5-dUTP incorporated in the synthesized complementary strand; 3' TTTTT single-stranded linker to array surface; dsDNA, one strand shown. In outline: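 In PBS with 2% BSA, salmon testes DNA and 50 µM zinc acetate, 200 nM protein was incubated on a custom Agilent array at 25 °C for 1 h and then washed off. The array had been made double-stranded by primer extension with Cy5-dUTP and blocked with 2% BSA. The proteins were transcription factors fused N-terminally to polyhistidine and DsRed, expressed in E. coli BL21-CodonPlus and purified on Ni–NTA. The binding signal is per-feature fluorescence intensity (arbitrary units) from an Axon 4000B scanner.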
Consider “TAGTAATTTTATTTCTAGCAACCATTGATCCAAATCGAACCGGAGTCACCTAGTGCAG”, for which the binding signal was 3580 fluorescence intensity (a.u.). The value for “GGACTGCTATAGGCAAATTGAAATTAGCATGCAGCTCTGGCGGAGTCACCTAGTGCAG” was 3260 fluorescence intensity (a.u.); that for “TAACCTAGCAATCACCGCATTGATCCTGTTGCCCTTTGTGCGGAGTCACCTAGTGCAG” was 5050 fluorescence intensity (a.u.); that for “TACTGATGAGGATCAAAATTTAGTGATCAACCGATAATGTCGGAGTCACCTAGTGCAG” was 4700 fluorescence intensity (a.u.). The value for “TTATTATTATTAATCAATCGCCTTCTTCCCCTCTTCCCTCCGGAGTCACCTAGTGCAG” was 3850 fluorescence intensity (a.u.); that for “GAAGATTTAGATTTTACATTGGTTTTCATTAACACGTTTTCGGAGTCACCTAGTGCAG” was 6700 fluorescence intensity (a.u.); that for “AGTTGTAATTATATTATAACTTACACATAATTACAACGTACGGAGTCACCTAGTGCAG” was 23500 fluorescence intensity (a.u.). Take “CTGCAACAGCATTCAATTACCGTAGCCGCTGTAACTAGGGCGGAGTCACCTAGTGCAG”: the binding signal is 3150 fluorescence intensity (a.u.). The value for “CAATTGGACAAATTAACTTCAAGTTATGCACTTATGCTATCGGAGTCACCTAGTGCAG” was 7160 fluorescence intensity (a.u.). On to “TTTAAACCTAATTGCTGTATGATTTGATAATAAGGTGCTACGGAGTCACCTAGTGCAG”, for which the binding signal is 24200 fluorescence intensity (a.u.). The value for “ACTTTAATAAGTTAATTAAGTCAATAGATTATGTAATAAGCGGAGTCACCTAGTGCAG” was 14900 fluorescence intensity (a.u.); that for “TGGTTTAAATTTAGGTTTGGTGTGTGATCTGTACTACCCACGGAGTCACCTAGTGCAG” was 3860 fluorescence intensity (a.u.). As for “TCACGATTGATTTTAGCAAAACGTTAAGCAAATTGCTTTACGGAGTCACCTAGTGCAG”, the binding signal was 19800 fluorescence intensity (a.u.). The value for “CATAATTTACATAATATTCCAACATATATCTTCATTATTTCGGAGTCACCTAGTGCAG” was 5730 fluorescence intensity (a.u.); that for “AGAGTTATTTATAATTTATATTCCCAATATTTGACTTAAACGGAGTCACCTAGTGCAG” was 3200 fluorescence intensity (a.u.).

In the case of “TCAAAGTTGTAGACAATCACACGTGTGATGACTTGCGACACGGAGTCACCTAGTGCAG”, the binding signal is 4040 fluorescence intensity (a.u.). With “ATAATTAGATTAAAATAGATTTTACCCGTTGCAATGCACGCGGAGTCACCTAGTGCAG”, the binding signal is 56200 fluorescence intensity (a.u.). The value for “CATGGCGGGGAGATTAATTGAGCATCATTTGTAAATTGAGCGGAGTCACCTAGTGCAG” was 7480 fluorescence intensity (a.u.). For the sequence “ATCTATAATTTATTTTGTTATTAATCTATATTTAATACTTCGGAGTCACCTAGTGCAG”, the binding signal is 5690 fluorescence intensity (a.u.).

Regarding “TTAAATGGTGGAGAGTTGTGATTGGTTGGGAATGTGATGTCGGAGTCACCTAGTGCAG”, the binding signal is 10400 fluorescence intensity (a.u.). The result for “ATAAATAAAATTAGGCCATATTTGCACTGAAATGTCTGCCCGGAGTCACCTAGTGCAG” reads 3350 fluorescence intensity (a.u.); that for “CTATGGTTCAATCAAACGGTCATTCCTGTGATTTTCCTTCCGGAGTCACCTAGTGCAG”, 5790 fluorescence intensity (a.u.); that for “TTTTAGATTGCTAAGAACACATATATAAAAGATTTATTCACGGAGTCACCTAGTGCAG”, 3720 fluorescence intensity (a.u.). Take “AGCATCTTCTGTACTAATCAATTATAAACTTACCCTAGCTCGGAGTCACCTAGTGCAG”: the binding signal is 6440 fluorescence intensity (a.u.). The value for “TCTAGTATTGGTAGATTGGTACCACCAGTCTACTGCCAGTCGGAGTCACCTAGTGCAG” was 3610 fluorescence intensity (a.u.); that for “AAAGAAACAAACAGAATAATTAAATTTTACATGAAGCACACGGAGTCACCTAGTGCAG” was 8480 fluorescence intensity (a.u.); that for “CGAAAATCATTAATACATTGACTAATATAGCACTATAGCACGGAGTCACCTAGTGCAG” was 9780 fluorescence intensity (a.u.). Take “CTCCAGATTGTCTGATGGACTACCAGCCTACCACTAGCTACGGAGTCACCTAGTGCAG”: the binding signal was 6310 fluorescence intensity (a.u.).

Turning to “GTCATGTGAAATTTATAATTTAAAATATTATAGTTTTACACGGAGTCACCTAGTGCAG”, the binding signal is 6830 fluorescence intensity (a.u.). The value for “GTGGATGTGATCCGCATGATTGATGTCATCATGAATATATCGGAGTCACCTAGTGCAG” was 20400 fluorescence intensity (a.u.); that for “GTTCTGATTTCTCAAGGTTTACCAACCTGCCATCTCCCATCGGAGTCACCTAGTGCAG” was 4220 fluorescence intensity (a.u.); that for “TTGTTTCATCAGTGACTGATCCTTTGTCTTGTTCATTTTGCGGAGTCACCTAGTGCAG” was 3560 fluorescence intensity (a.u.).

Consider “GGATTATGTTTACAATTTTCAAATAAATTAGTGTTAAACACGGAGTCACCTAGTGCAG”, for which the binding signal is 4400 fluorescence intensity (a.u.).

On to “GTGATGATTGATCAGTTGAAAATTAATGAGCATGCAAATGCGGAGTCACCTAGTGCAG”, for which the binding signal is 29000 fluorescence intensity (a.u.). Regarding “TCTCTTGCCACCTCCATCAATCAATTCCTCTCGCGCCACCCGGAGTCACCTAGTGCAG”, the binding signal was 10600 fluorescence intensity (a.u.). The value for “TTCCTAATTTAAATGGTTGCATATATCCGGTTGGATGTAGCGGAGTCACCTAGTGCAG” was 22900 fluorescence intensity (a.u.). As for “TTTAATAGAACAAAAGTAACTGTTGCATTCTAGTTGAAGTCGGAGTCACCTAGTGCAG”, the binding signal was 5310 fluorescence intensity (a.u.).

With “CTGATTATTTCCCAAGATAGAAAGAAATGTGTATTTTGGACGGAGTCACCTAGTGCAG”, the binding signal was 7860 fluorescence intensity (a.u.).

With “ATCAATGTGATTTGAAGTATGATAGTAAAGTCACAATTCACGGAGTCACCTAGTGCAG”, the binding signal is 9150 fluorescence intensity (a.u.). The value for “CAGATTGTTTGATTTAAATATGAGCAACAAGGCGTCGACCCGGAGTCACCTAGTGCAG” was 32200 fluorescence intensity (a.u.). The value for “AGGATTGAAGCGAGATGGATGAACTGCACGACGAAGAGCGCGGAGTCACCTAGTGCAG” was 8260 fluorescence intensity (a.u.); that for “AAAAGTAATTTATTATCTTAAATAGATAGAAGATATAAAACGGAGTCACCTAGTGCAG” was 5360 fluorescence intensity (a.u.).
